Columns and labels:
[1] = tested on: healthy subjects, T2D subjects, PBC pruritus subjects
[2] = tested on: T2D subjects; assay: Study 201351: 14-day dose-ranging study added to metformin in T2D subjects; format: in vivo, human
Protocol: For T2D subjects who completed the 14-day treatment period with GSK2330672 added to metformin in Study 201351, repeated doses of GSK2330672 from 10 mg to 90 mg BID reduced circulating prandial glucose concentrations at all doses compared to placebo and sitagliptin over 14 hours post-dose. The circulating concentrations of serum C4 were increased over 14 hours post-dose by GSK2330672 at all doses compared to placebo and sitagliptin; while C4 concentrations for the 10 mg, 20 mg, 30 mg and 60 mg of GSK2330672 groups appear to have reached a plateau by Day 7, this was not the case for the 90 mg group in which the Day 14 values were greater than those at Day 7.
Reductions in fasting plasma glucose were greater in GSK2330672 30 mg, 60 mg, and 90 mg groups on Day 7 and Day 14 compared to placebo and sitagliptin groups.

[3] = target: T1, ileal bile acid transporter (Homo sapiens, UniProt Q12908); assay: Single and repeated oral doses in healthy subjects (bile acid pharmacodynamics); format: in vivo
T1 construct: the pharmacological target of GSK2330672 is located on the brush border of enterocytes in the intestinal lumen; from tissue; host or cells: intestinal enterocytes (brush border) of human subjects, in vivo
T1 sequence (Q12908 1-348): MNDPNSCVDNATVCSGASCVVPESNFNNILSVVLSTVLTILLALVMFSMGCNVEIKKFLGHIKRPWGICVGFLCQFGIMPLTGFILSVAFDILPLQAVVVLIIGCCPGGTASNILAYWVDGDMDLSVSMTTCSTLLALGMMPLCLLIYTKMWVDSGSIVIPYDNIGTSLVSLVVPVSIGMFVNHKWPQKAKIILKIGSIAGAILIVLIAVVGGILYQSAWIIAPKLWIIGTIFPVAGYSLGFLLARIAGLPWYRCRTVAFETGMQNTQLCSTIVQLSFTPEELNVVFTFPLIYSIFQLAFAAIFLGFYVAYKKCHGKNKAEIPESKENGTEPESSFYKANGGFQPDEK
Source text: Repeated doses suppressed both fasting and post-prandial bile acid concentrations measured on Day 1 and Day 10 of dosing. The anticipated adaptive response to inhibited bile acid reabsorption, upregulation of hepatic bile acid synthesis, was estimated by measuring serum concentrations of 7-alpha-hydroxy-4-cholesten-3-one (C4). With repeated doses of GSK2330672, serum C4 concentrations increased up to 10-fold after ten days of dosing.

[4] = tested on: patients with primary biliary cholangitis (PBC) and symptoms of pruritus; assay: Phase 2 double-blind, placebo controlled, crossover trial in PBC patients with pruritus (Study 117213); format: in vivo, human
Protocol: A clinical study was carried out to investigate the safety, tolerability, and effect of repeat doses of GSK672 administration in patients with primary biliary cholangitis (PBC) and symptoms of pruritus. The results of this study have been summarized and published on clintrials.gov
A phase 2 double-blind, randomised, placebo controlled, crossover trial in PBC patients with pruritus was conducted at two specialist PBC centres in the United Kingdom between March 2014 and November 2015. Subjects received oral GSK672 (45 to 90 mg) and placebo twice daily for 14 days in a crossover sequence.
The primary end point was safety [measured by clinical and laboratory assessments and adverse events (AEs)] and tolerability. Secondary end points were: i) changes in pruritus scores from baseline measured using a 0 to 10 numerical rating scale (NRS) completed twice daily and PBC-40 itch domain scores and 5-D itch scale and ii) changes in serum levels of total bile acids (TBA) and 7alpha-hydroxy-4-cholesten-3-one (C4). Serum levels of individual BA species, autotaxin (ATX) activity and FGF19 were measured at baseline and at the end of each treatment period.
Reduction of pruritus severity occurred within the first week of GSK2330672, continued to decrease through 2 weeks of treatment and returned towards baseline upon blinded switch to placebo. Decreases in fatigue, sleep disturbance and overall disability were also noted upon GSK2330672 administration compared to placebo. […] GSK2330672 was minimally absorbed as evidenced by detection in isolated samples in a small portion of subjects (8 out of 21). […] Parent compound (GSK2330672) was the only drug related material observed in the urine, and the concentration was low and not observed in all subjects. […] Of note, plasma concentrations of TUDCA and GUDCA were still at levels associated with clinical efficacy in published studies of UDCA therapy for PBC. Dilger K, Hohenester S, Winkler Budenhofer U, Bastiaansen B, Schapp F, Rust C, Beuers U. Effect of ursodeoxycholic acid on bile acid profiles and intestinal detoxification machinery in primary biliary cirrhosis and health. Journal of Hepatology. 2012; 57:133-40.

[5] = Plasma drug concentrations after administration of GSK2330672; format: in vivo, human
Protocol: Because the pharmacological target of GSK2330672 is located on the brush border of enterocytes in the intestinal lumen, the molecule was designed to have low permeability and high polar surface area to limit absorption into the portal or systemic circulation. Blood samples were obtained at frequent intervals after administration of GSK2330672 for assays of plasma drug concentrations. The majority of measurements were below the lower limit of quantification for the assay (LLQ=1 ng/mL). The highest measurable concentration was 5.33 ng/ml obtained 2 hours post-dose in 1 subject, confirming limited absorption into the systemic circulation.

[6] = tested on: T2D subjects; assay: Study 200185: 7-day treatment added to metformin in T2D subjects; format: in vivo, human; settings: 7 days
[7] = 45 increased on Day 3 to 90 mg BID, with metformin

## CCCC[C@]1(CC)CS(=O)(=O)c2cc(CNC(CC(=O)O)CC(=O)O)c(OC)cc2[C@@H](c2ccccc2)N1 [GSK2330672]
[1]; any study
  deaths or pregnancies: No deaths or pregnancies were reported
[1]; gastrointestinal symptoms
  most commonly reported adverse events: diarrhea, abdominal pain and bowel movement irregularity
[1]; healthy subjects, T2D patients, PBC pruritus patients
  vital signs, ECG, spirometry, clinical laboratory findings: no clinically significant patterns
[2]; 10 mg to 90 mg BID, all doses, over 14 hours post-dose
  circulating prandial glucose concentrations compared to placebo and sitagliptin: reduced
[2]; 30 mg, 60 mg and 90 mg groups, Day 7 and Day 14
  reductions in fasting plasma glucose compared to placebo and sitagliptin groups: greater
[2]; 60 mg group, greatest mean reduction
  fasting serum apoB/cholesterol, LS mean change from baseline (expressed as a ratio) difference from placebo (95% CI): 0.74 (0.66, 0.82)
[2]; 90 mg group, Day 14, 95% CI [−33.73, −1.48]
  fasting plasma insulin, LS mean difference from placebo: -17.61 pmol/L
[2]; all dose groups
  triglyceride concentrations: trend for an increase
[2]; all doses, over 14 hours post-dose
  circulating concentrations of serum C4 compared to placebo and sitagliptin: increased
[2]; any dose group
  HDL cholesterol: no clinically meaningful changes
[3]; healthy subjects, single doses
  fecal bile acid excretion over the subsequent 48 hours: significantly increased
[3]; repeated doses, Day 1 and Day 10
  fasting and post-prandial bile acid concentrations: suppressed
[3]; repeated doses, after ten days of dosing
  increase in serum C4 concentrations: up to 10 fold
[4]; 0 to 10 numerical rating scale, 95% CI
  reduction in itch intensity as measured by NRS: −1.58 (95% Cl: −2.48 to −0.68)
[4]; 90 mg BD
  effect on absorption of ursodeoxycholic acid (UDCA): did not inhibit
[4]; 90 mg BD, 3 rating scales (10 point NRS, 5D Itch Scale, PBC-40)
  pruritus severity compared to placebo: statistically significant decrease
[4]; 90 mg BD, 14 day
  decrease in concentration of serum total bile acids: approximately 50%
  increase in serum C-4: 3 fold
[4]; 90 mg BD, minimally absorbed
  subjects with detection of GSK2330672 in isolated samples: 8 out of 21
[4]; 95% CI
  reduction in itch intensity, 5-D itch: −4.55 (95% Cl: −6.60 to −2.49)
  reduction in itch intensity, PBC-40 itch domain: −0.59 (95% Cl: −0.94 to −0.24)
[4]; GSK672 period (placebo 5%)
  Diarrhoea AE frequency: 33%
[4]; GSK672 period (placebo 33%)
  headache AE frequency: 29%
[4]; GSK672 period, 17/21, 45 to 90 mg twice daily 14 days
  Frequency of any AE: 81%
[4]; baseline 48.64±68.77 μM, p=0.15
  serum TBA levels after GSK672 treatment: 25.15 ± 23.85 µM
[4]; itch, 45 to 90 mg twice daily 14 days
  response rate: 71%
[4]; oral 45 to 90 mg twice daily for 14 days, 21 PBC patients
  serious AEs: No serious AEs were reported
[4]; two weeks of oral twice daily dosing
  tolerability: well tolerated
[4]; vs. 3.1±0.55, p=0.009
  serum levels of deoxycholate following GSK672: 3.39 ± 0.64 µM
[4]; vs. 3.47±7.15 μM, p=0.0004
  serum levels of taurocholate after GSK672: 0.31 ± 0.74 µM
[4]; vs. 3.68±7.50 μM, p=0.002
  serum levels of taurochenodeoxycholate after GSK672: 0.8 ± 1.46 µM
[4]; vs. 4.44±7.43 μM, p=0.0013
  serum levels of glycocholate after GSK672: 0.9 ± 1.21 µM
[4]; vs. 8.25±4.17, p=0.006
  serum ATX activity following GSK672: 6.95 ± 2.62 nmol/mL/min
[4]; vs. 13.13±10.04, p=0.0006
  serum levels of C4 following GSK672: 35.2 ± 25.32 ng/mL
[4]; vs. 162.9±107.5, p<0.0001
  serum FGF19 levels following GSK672: 50.66 ± 47.31 pg/mL
[5]; below lower limit of quantification (LLQ=1 ng/mL)
  plasma drug concentration, majority of measurements: < 1 ng/mL
[5]; human, plasma, oral, 2 hours post-dose in 1 subject, read-out: highest measurable plasma concentration
  concentration at 2 hours: 5.33 ng/mL
[6]; [7]
  C4 concentrations: increased
  serum total bile acid concentrations: significantly decreased
[6]; placebo 3.5% mean increase
  mean reduction in fasting LDL-C from baseline: 41.7%
[6]; placebo −16.0%
  Fasting serum triglycerides: relatively stable
